Measured values from the supplement of paper PMC10126150.
Values marked as one replicate rest on one cluster of the flow cell; about a third of the high ones do not repeat.

The sequences below were run on ATP (assay: switch fluorescence ratio, 500 uM ATP over buffer (Cy3 cluster intensity, sum of 5 cycles each) (fold (ratio)); higher = stronger signal-on switching upon ATP binding; sequences stand for … in TCGTCGGCAGCGTCAGATGTGTATAAGAGACAGTTTTTTTTTTTTTTTTTTTTTTTTT…TC). Conditions: aptamer strand: ATP DNA aptamer (quencher-CACCTGGGGGAGTATTGCGGAGGAAGG + anchor), 100 nM annealed; ATP concentration: 500 uM; one replicate.
Method in brief: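 Exposure to 500 uM ATP lasted 15 min at 22 °C before imaging, and a selection-buffer image was taken beforehand, for Cy3-labelled switching-strand clusters on a modified Illumina MiSeq flow-cell annealed to 100 nM quencher-labelled ATP aptamer. Five buffer/ATP cycles were run with NaOH stripping and re-annealing between them. The fluorescence ratio per cluster is summed target-cycle over summed buffer-cycle Cy3 intensity, averaged per switch-domain sequence. Clusters outside 100-1000 RFU were excluded.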

| Sequence | switch fluorescence ratio |
| --- | --- |
| CTCCTTTCTC | 1.43 |
| CTCGAAACGG | 0.965 |
| CTCGAAGGCT | 0.952 |
| CTCGAAGTTC | 1.08 |
| CTCGATCCAT | 0.952 |
| CTCGATCGTT | 0.997 |
| CTCGCACCGG | 1.13 |
| CTCGCAGTAT | 2.97 |
| CTCGCCGCTC | 1.45 |
| CTCGCCTTTT | 1.07 |
| CTCGCGGGGA | 1.02 |
| CTCGCTGCTT | 0.979 |
| CTCGGGAAG | 1.05 |
| CTCGGGTGTC | 1.03 |
| CTCGGGTGTT | 1 |
| CTCGGTAAGT | 1.01 |
| CTCGGTAGAC | 1.72 |
| CTCGTCTCGT | 0.974 |
| CTCGTGGGTA | 1.02 |
| CTCGTGTGAT | 0.994 |
| CTCGTTGATG | 1.04 |
| CTCGTTTGCC | 0.987 |
| CTCTACAGT | 1.01 |
| CTCTACATCC | 1.07 |
| CTCTAGATAG | 2.82 |
| CTCTATATAT | 1.03 |

| Sequence | switch fluorescence ratio |
| --- | --- |
| CTCTATCGAA | 0.993 |
| CTCTCAAAAT | 2.22 |
| CTCTCAACAG | 1.06 |
| CTCTCAAGAT | 1.27 |
| CTCTCACGGT | 1.14 |
| CTCTCCAGTC | 1.25 |
| CTCTCGGCGG | 1.03 |
| CTCTGAGCAA | 3.06 |
| CTCTGGGACG | 0.942 |
| CTCTGTAAGT | 1.12 |
| CTCTGTTATC | 2.11 |
| CTCTGTTATT | 1.27 |
| CTCTGTTCAC | 1.23 |
| CTCTTAGGCT | 0.959 |
| CTCTTCCAGG | 5.99 |
| CTCTTTATGC | 1.13 |
| CTCTTTGAGT | 0.997 |
| CTCTTTGCTG | 0.97 |
| CTGAAAGGAG | 0.961 |
| CTGAAGGGTG | 0.987 |
| CTGAATCTAC | 1.15 |
| CTGAATGGTC | 1 |
| CTGACGCTTT | 1.32 |
| CTGACTTGAC | 1.08 |
| CTGAGAAGCG | 0.978 |
| CTGAGATTGT | 0.993 |

| Sequence | switch fluorescence ratio |
| --- | --- |
| CTGAGCAGGT | 1.38 |
| CTGAGCATTG | 1.22 |
| CTGAGGGCTT | 1.01 |
| CTGAGGTTGA | 1.02 |
| CTGAGGTTGG | 0.988 |
| CTGAGTCTGG | 1.02 |
| CTGATAAGGG | 1.01 |
| CTGATAGTAT | 1.02 |
| CTGATCGCCC | 1.73 |
| CTGATCGGCG | 0.931 |
| CTGATTCTCT | 1.02 |
| CTGCAATTGG | 4.29 |
| CTGCAATTT | 2.56 |
| CTGCATCAGG | 1.27 |
| CTGCATCCA | 1.07 |
| CTGCGATGGT | 1.15 |
| CTGCGCCGAG | 1.03 |
| CTGCGCCTAA | 1.16 |
| CTGCTACAAC | 1.39 |
| CTGCTACCCC | 1.33 |
| CTGCTAGGCG | 1.07 |
| CTGCTTAACG | 1.03 |
| CTGCTTCAAT | 0.971 |
| CTGGAACTAG | 1.02 |
| CTGGACGTGC | 1.05 |
| CTGGACTCCC | 1.56 |

| Sequence | switch fluorescence ratio |
| --- | --- |
| CTGGAGCGGG | 1.35 |
| CTGGAGGAAT | 1.75 |
| CTGGATCGG | 1.02 |
| CTGGATTCGC | 1.22 |
| CTGGATTTGA | 0.981 |
| CTGGATTTT | 1.03 |
| CTGGCCACAT | 1 |
| CTGGCCCTTT | 1.04 |
| CTGGCGAAGC | 0.98 |
| CTGGCGAAT | 0.965 |
| CTGGCGTCAA | 1.64 |
| CTGGCTGCAC | 2.06 |
| CTGGCTTAGC | 1.02 |
| CTGGGCATGA | 1.05 |
| CTGGGCCAAA | 1.02 |
| CTGGGCTTCT | 1.21 |
| CTGGGGCATA | 1.4 |
| CTGGGGCGGT | 1.05 |
| CTGGGGTCAT | 1.01 |
| CTGGGGTGAT | 1.04 |
| CTGGGTACAC | 0.961 |
| CTGGGTCAAT | 1.29 |
| CTGGGTCGCT | 1.01 |
